Here are results for 22 molecules from PMC12136788.

This is one part of the list.

First the molecules themselves.
T1: UNK ZnF1-3 (human, UniProt Q9C0B0 31-174)
T1 sequence: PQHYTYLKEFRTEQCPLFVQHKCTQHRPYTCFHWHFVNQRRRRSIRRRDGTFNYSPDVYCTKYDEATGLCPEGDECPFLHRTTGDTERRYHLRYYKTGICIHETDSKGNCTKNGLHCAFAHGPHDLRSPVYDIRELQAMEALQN

B1: chr9:96327448:96327449:+_ENSG00000048828_ENST00000277165|hu_hu|FALSE|FALSE (ssRNA)
RNA: GGGAGUUCUACAGUCCGACGAUCAGUCACGAAAGUUUCAGAACACAUUGUGUUGAUUUUGAAAGGUCAUUUGCAUCUUCUAUGAUUUCAACUUUAUCUCCAUUUAACUUGCUUGUAAAGUAUGUAUGAUGUAUUGUAUAUUUACAACAGAGGAUUGAGCAUCA
B2: chrM:8634:8635:+_ENSG00000198899_ENST00000361899|hu_hu|FALSE|FALSE (ssRNA)
RNA: GGGAGUUCUACAGUCCGACGAUCUUUGAGGUUAGUUUGAUUAGUCAUUGUUGGGUGGUGAUUAGUCGGUUGUUGAUGAGAUAUUUGGAGGUGGGGAUCAAUAGAGGGGGAAAUAGAAUGAUCAGUACUGCGGCGGGUAGGCCUCAACAGAGGAUUGAGCAUCA
B3: 52289467_52289587_540_CDS_ENSMUSG00000026103_ENSMUST00000114513|mouse|control|control (ssRNA)
RNA: GGGAGUUCUACAGUCCGACGAUCGCUGUUGCCGAACGCGUCGGUCUCCCCCGGGCUGUCCUUGGGGCCCGGGGCUGCGGGUGGCGACGCCCCUGGCUGCUGCUGCUGCUGCUGCUGCUGCUGUGGCGGCGUACCCCCCUUCCCCAACAGAGGAUUGAGCAUCA
B4: chr7:7679991:7679992:-_ENSG00000106399_ENST00000396682|hu_hu|hu_hu_hu_mus_False|8_78 (ssRNA)
RNA: GGGAGUUCUACAGUCCGACGAUCUGGGAUGAAUCUUUUCCAGCUUCCCCACGAAGCAGACAGGCUUGUCGAUAUACUGUGGUAACAUGCUGGCGUUGACGCGCGCUUUGGGGAGCUGCAUUAUGUCCACCAUGAUUCUGCCGCCAACAGAGGAUUGAGCAUCA
B5: 122489335_122512930_691_3pUTR_ENSMUSG00000034602_ENSMUST00000073792|mouse|control|control (ssRNA)
RNA: GGGAGUUCUACAGUCCGACGAUCGCUGCACGACCUCUGAGCUGUUCUCUUUCAAUGCUGCCAAAAUUUCCGUGUUUCUUGCAGCUAUUGUUUUAACUUUUAUUAUUCCCGAUUCAGCAGCCUCCUUGACAGGUGGGAACUUCUCAACAGAGGAUUGAGCAUCA
B6: chr1:225611761:225611762:-_ENSG00000143815_ENST00000272163|hu_mus|hu_hu_hu_mus_True|28_78 (ssRNA)
RNA: GGGAGUUCUACAGUCCGACGAUCCCAGGCCAUCGGCCUCUGACCACUUCACCCUCAGCAAAUUUCCUACUUGGCAUUUUCUAAAAUUAGUCUGGCCGCGCUCCGGCCGGUGACACGGCCACUCCAGGACAGUCACCAGCAGCCCAACAGAGGAUUGAGCAUCA
B7: chr6:146524949:146524950:-_ENSMUSG00000040250_ENSMUST00000032427|mus_hu|FALSE|FALSE (ssRNA)
RNA: GGGAGUUCUACAGUCCGACGAUCCUGCCUGCAAGAUUCUGCCAUAUAAGGGCAGUGAUCCACAACAAACACUGUUUUAUGAGAUUCAGAAAAAAUCUUCAUUUUGUUUUAACUUUCGUGCCUGGUCCUGCAGUGAAAACGAACCAACAGAGGAUUGAGCAUCA
B8: chr20:32439910:32439911:+_ENSG00000101421_ENST00000217402|hu_mus|FALSE|FALSE (ssRNA)
RNA: GGGAGUUCUACAGUCCGACGAUCAGGGACUGUUUCGGGCCCACUGAUCUCCAACAAAUUCUUGUCCAACUCCUCUUGUUCAAGUUCCUCCAACUCUGCCAUGAGCUCAUCCUCGUCGAACUCUUCUCCAAAGCCCACAGGUUUCAACAGAGGAUUGAGCAUCA
B9: chr7:135612270:135612271:-_ENSG00000105887_ENST00000393085|hu_mus|hu_hu_hu_mus_False|48_58 (ssRNA)
RNA: GGGAGUUCUACAGUCCGACGAUCGUUUUUUUCUGAGAUGUUAAAUAGUACUUCAGUGGAAAACAAAACUUAACCUUUCGCUAAUGCAUGUAGUACCAAAAGCAGACAUUUUAGCUUCAUUUAUUCAAAAAUAUUAACAUUAAGCAACAGAGGAUUGAGCAUCA
B10: chr13:14146135:14146136:-_ENSMUSG00000021302_ENSMUST00000170957|mus_mus|FALSE|FALSE (ssRNA)
RNA: GGGAGUUCUACAGUCCGACGAUCAGUGUAUGCAAAAGAACCUACAUCCUCCAGGUACUGCACACAAUACUUUUUAAUAUCUAUAUUCUCUGUUCUCUGGCGCAGGAUGUUCUGUACCUGGGUGCUUUCUGGCCUUGACCAAAUCAACAGAGGAUUGAGCAUCA
B11: chrX:69798090:69798091:-_ENSMUSG00000031343_ENSMUST00000055966|mus_mus|mus_mus_mus_hu_False|38_108 (ssRNA)
RNA: GGGAGUUCUACAGUCCGACGAUCAAGUCCCCAGGUUCUUGUCGUCUUGAUUCCCCUUGACCAGUGGUUCCAGGGAGAAUAUUAAUCAGGAAAAGAAGUACAACUCUGGUCAUGUAACAGUGACUUGUUUGUGUGAUUAUCAUCCAACAGAGGAUUGAGCAUCA
B12: chr5:93704372:93704373:+_ENSMUSG00000029385_ENSMUST00000031331|mus_hu|FALSE|FALSE (ssRNA)
RNA: GGGAGUUCUACAGUCCGACGAUCAACCAUUAAGGAUUAUCCACUGUCCCUGCUAAGGAAGCACUUGCAUACUUCCAAUCUGCUUAAAGACAUCUGAAGGUUUUAUAAAAUGUUUAAGAUAAGCUACACUAGUUAUUUUUAAAACAACAGAGGAUUGAGCAUCA
B13: chr15:95746395:95746396:+_ENSMUSG00000064210_ENSMUST00000071874|mus_mus|FALSE|FALSE (ssRNA)
RNA: GGGAGUUCUACAGUCCGACGAUCCCAUUCUCUGUACAGGAGGUAACGCUCGCUAGGACAACUGAUGUCCUCCGACUCAUAGUUGAAUCUGCAGUCGUGCAGAGGAAACGCUGCUUUGUAGAUUCCAGAGCUGACCAGUCUAUUCAACAGAGGAUUGAGCAUCA
B14: chr11:105967523:105967524:+_ENSG00000149313_ENST00000278618|hu_hu|FALSE|FALSE (ssRNA)
RNA: GGGAGUUCUACAGUCCGACGAUCCCAAAAUGAAGGAUCUUCAGGUGUCAUGGGAACGGCAGAUGACAUUAAAUCAUUAAAGUUGAGAAUAGUAAAUUGCCUCUGGGUUGGUUUGGAAUCAUCCUGAGAUGGAACAUCCUGAUGCAACAGAGGAUUGAGCAUCA
B15: chr1:66480114:66480115:+_ENSMUSG00000015222_ENSMUST00000024639|mus_hu|mus_mus_mus_hu_True|28_98 (ssRNA)
RNA: GGGAGUUCUACAGUCCGACGAUCUGGCCUGUGGCGGAUGUUCUUUAGAGAGCCACAUUUGGAUGUCACAUGGCUUAGGUCUAUUUUCUUGGUAACAAUUUGUACCUGACCCCCCUUAGGCUGGUAUUUGAUGUUGUCUGUUGACAACAGAGGAUUGAGCAUCA
B16: chr4:175158712:175158713:-_ENSG00000164117_ENST00000503293|hu_mus|FALSE|FALSE (ssRNA)
RNA: GGGAGUUCUACAGUCCGACGAUCACGGCGCGUAUUUCGAAUAAACUCUCUUUUUGACAUUUUAUUCUUCACAUGAGGACUAGUGAGGUCAAUGGAAAGUAGAAUCAAAGAGUAGCACAGUACAUAGACAGCAUCAGGACUAAGCAACAGAGGAUUGAGCAUCA
B17: chr14:76904568:76904569:+_ENSMUSG00000022010_ENSMUST00000022587|mus_hu|motif|central (ssRNA)
RNA: GGGAGUUCUACAGUCCGACGAUCGUUUUCAGUCCCCAGCAAGGAUGACAAGAAAGAAAUUGAAAAAUGUCUCAGUUGGUAAACUCCGGGAUCCAUCGCCACUGGUCUACACCAUUGGGAUUUCAUGCAAUUGCAGCCAAAAACCAACAGAGGAUUGAGCAUCA
B18: chrX:154448470:154448471:+_ENSG00000155959_ENST00000286428|hu_mus|FALSE|FALSE (ssRNA)
RNA: GGGAGUUCUACAGUCCGACGAUCAUCCAGCUUCUUUAACACUGUAUCUGCAGUCUCAUUCCCAGGCUGCUUCAUGAAAGAAUCUACAUCUUCCACAAACACUGCUUCAGGAAUCCCUAAGUGGAGCCGCCGCCCGUUUCCAGCCAACAGAGGAUUGAGCAUCA
B19: chr6:31458560:31458561:+_ENSMUSG00000025609_ENSMUST00000026699|mus_mus|FALSE|FALSE (ssRNA)
RNA: GGGAGUUCUACAGUCCGACGAUCUCAGAGGAGAGUGAGAGCGUAGGUUCUGCAUAGCUCUACCAGCAGUCAUUUCCUUUAAAAUCCCAACAGAGAUAUCAGUAAAAAUAGGGGGAAGGACAGCACCUCUCCUGCUGGUCACCUCAACAGAGGAUUGAGCAUCA
B20: chr17:61432403:61432404:+_ENSG00000170921_ENST00000424789|hu_hu|motif|central (ssRNA)
RNA: GGGAGUUCUACAGUCCGACGAUCCUUCAUAUUGCACUGGAGUAAAUAAACCUCUGAGAGCGAAACAGGAACUACUUUGUAGCGGGAGCUCUUUAACACUAGAUAGCCUUUCUCUAUGAGGUCAAAUGUAAGUUUCAGAUAUAGCAACAGAGGAUUGAGCAUCA
B21: chr4:43046810:43046811:-_ENSMUSG00000036002_ENSMUST00000107956|mus_mus|FALSE|FALSE (ssRNA)
RNA: GGGAGUUCUACAGUCCGACGAUCGAAGAGGCGAUGGCGCAGGAAGGUCAUGUGGGCAGCAGGCAUGUCCGAGAAGUCAAAGGUCACAAGGAACAUCUUCACCACAGUCUGGUUGGGGUUAAAUAAGGUCACUUGGAUGGUGCCCAACAGAGGAUUGAGCAUCA
B22: chr1:150192741:150192742:-_ENSG00000143401_ENST00000314136|hu_mus|motif|central (ssRNA)
RNA: GGGAGUUCUACAGUCCGACGAUCAAUUAUGGGCUAAAAAUGUCUAAUACAUUAAGCAUGAAUUAUAAAAAUCCAGAAUCGGAAUACAGUGCUAGAGAAUUUCACUAUGGGAAGAUGAAUGAGAAUUCUUUUCUAAGAACAUUACAACAGAGGAUUGAGCAUCA

The target of this assay is T1, UNK ZnF1-3. Put plainly: nsRBNS (natural sequence RNA bind-n-seq); RBNS binding buffer (assumed for nsRBNS): 25 mM Tris pH 7.5, 150 mM KCl, 3 mM MgCl2, 0.01% Triton X-100, 500 ug/ml BSA, 20 U/ml SUPERase-In, 4 C; UNK is unkempt and MSI1 is Musashi-1; names of the RNAs are library labels; protein concentration not given here; high values mean tight binding.
As to B1, the binding signal was 0.427 enrichment R.

B2: the binding signal came to 1.23 enrichment R.

B3 returned a binding signal of 0.436 enrichment R.

As to B4, the binding signal worked out at 0.617 enrichment R.

The molecule B5 showed a binding signal of 0.62 enrichment R.

B6 yielded a binding signal of 1.01 enrichment R.

B7: the binding signal came to 1.02 enrichment R.

On to B8, for which the binding signal came to 0.87 enrichment R.

As for B9, the binding signal was found to be 0.777 enrichment R.

Regarding B10, the binding signal worked out at 0.969 enrichment R.

Molecule B11 came in with a binding signal of 0.745 enrichment R.

Consider B12, for which the binding signal worked out at 1.11 enrichment R.

B13 gave a binding signal of 0.845 enrichment R.

B14 displayed a binding signal of 1.47 enrichment R.

Molecule B15 returned a binding signal of 0.601 enrichment R.

Consider B16, for which the binding signal was 1.41 enrichment R.

Regarding B17, the binding signal was 1.57 enrichment R.

For B18, the binding signal is 0.785 enrichment R.

B19 came in with a binding signal of 2.16 enrichment R.

On to B20, for which the binding signal is 1.37 enrichment R.

In the case of B21, the binding signal turned out to be 1.56 enrichment R.

The molecule B22 came in with a binding signal of 1.22 enrichment R.
